B1: CPEB3 Ribozyme (parent)
chain: UAACAGGGGGCCACAGCAGAAGCGUUCACGUCGCAGCCCCUGUCAGAUUCUGGUGAAUCUGCGAAUUCUGCUGUAUAUCUC

The source gives no read counts; variants with many changes may rest on few reads.

The data set covers variants of B1. Put plainly: self-cleavage, relative activity (ratio to wild type); higher = more cleavage; in vitro, sequencing. The gist of the method:
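Barcoded CPEB3 ribozyme mutants, produced by rounds of error-prone PCR, self-cleaved while being transcribed with T7 RNA polymerase for 5 hours at 37°C and during a subsequent 15 min DNase I step before EDTA was added. Sequencing of template-switched cDNA on Illumina gave cleaved and total reads, and DNA sequencing assigned barcodes to variants. Each variant's relative activity is its cleaved/total read fraction divided by the unmutated ribozyme's fraction, averaged across three batches. A variant needed a minimum of 5 reads.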
Turning to A3G A13G G46U U51A A57G U80G, the self-cleavage turned out to be 0.31. Turning to A3G A5U C12U U67A, the self-cleavage came out at 0.96. Consider A3G A15G C29G C38A U60A A64U, for which the self-cleavage was 0.12. In the case of A3G A13U A35C U41C, the self-cleavage stood at 1.09. In the case of A3G A15G G19C U76A, the self-cleavage is 0.45.

For the variant A3G A18U C38G U49A U69A U76C U80C, the self-cleavage was determined as 0.09. Regarding A3G A13U G19U A28C G33U A56G, the self-cleavage was determined as 0.12. As to A3G A20G U25C U76C, the self-cleavage was 0.13. A3G A5U G22C U31C U51C: the self-cleavage amounted to 0.49. With A3G A18G A35U U69C, the self-cleavage was found to be 0.73. As for A3G A5U U26C, the figure is 0.63; as for A3G A5U U80A, 1.12; as for A3G A15U G16A A20G G36U U41C U43C, 0.03. A3G A15G A28G A47U U49C U80C: the self-cleavage was 0.36. As for A3G A15G G22U, the figure is 0.41; as for A3G A18U U26C G36A G52A U80C, 0.35; as for A3G A18G C29A G33A A65G, 0.22. In the case of A3G A20G A56U A64G it was 0.37. On to A3G A15G A18U U26A A45U G61A, for which the self-cleavage came out at 0.07. Regarding A3G A13U G46U U80G, the self-cleavage was 0.6.

With A3G A5U C14U C40U U51A, the self-cleavage was 0.77. As for A3G A15G C38A U43A A56G, the self-cleavage was determined as 0.23. Turning to A3G A5G U51C U60C, the self-cleavage came to 0.25.

Take A3G A18G A28C: the self-cleavage is 0.23. In the case of A3G A5G U43A it was 0.64; in that of A3G A13G A28G U54G A75U A77G, 0.52; in that of A3G A20G U26A U54C U66A A75G, 0.41. Turning to A3G A18G G33U, the self-cleavage was 0.42. Turning to A3G A13U A28G U31A U69C, the self-cleavage came to 0.36. In the case of A3G A15C U26A U51C U72A, the self-cleavage came to 0.74. As for A3G A13G A15C U25C C29U C40A U80C, the self-cleavage was found to be 0.12. In the case of A3G A18U U31C U43C, the self-cleavage came out at 0.6. In the case of A3G A5U C12U U76C U78C, the self-cleavage is 1.2. A3G A20G A56G: the self-cleavage stood at 0.85. With A3G A13G A15G A57G U74A, the self-cleavage is 0.14. As for A3G A13G A15G U54C A77U, the figure is 0.83; as for A3G A18U U51C U78C, 0.55. Take A3G A5G G33A U43C G70C: the self-cleavage was determined as 0.25. As for A3G A13C A20U A77U, the figure is 0.21.

As to A3G A15U U31C U72C, the self-cleavage was found to be 0.66. As to A3G A15G U72A, the self-cleavage was found to be 0.24.

As for A3G A13U U43C U54A U80C, the self-cleavage stood at 0.49. For A3G A5U A56G A57G, the self-cleavage was 0.43. Turning to A3G A20G A21G U31C U78C, the self-cleavage was 0.63. As for A3G A15G A21G U43G A64G, the figure is 0.46; as for A3G A13G U72C, 0.78. For the variant A3G A5G A56G U60A A65G, the self-cleavage came out at 0.71.

For the variant A3G A5U U49C U58C U67C U78A, the self-cleavage worked out at 0.13. Take A3G A13G U25C G46C: the self-cleavage came to 0.1. Take A3G A5G U26A U41C U67A: the self-cleavage came to 0.14. As to A3G A15G G30C C50A A57C, the self-cleavage turned out to be 0.13. As for A3G A20G A35G C38U U48C A56G U67A, the figure is 0.54; as for A3G A18U G36A, 0.34. With A3G A5U A75G, the self-cleavage turned out to be 0.93.

Consider A3G A20G C50U, for which the self-cleavage was found to be 0.98.

In the case of A3G A15G A65G, the self-cleavage amounted to 0.46. As for A3G A18C A35U A56G U58C, the figure is 0.36. As to A3G A5U U26C U48G A57C, the self-cleavage was 0.43. On to A3G A13G U26A U51C A65G, for which the self-cleavage worked out at 0.37. Regarding A3G A18G A28G U48C, the self-cleavage was determined as 0.64. As to A3G A15C G36A U43C A56G C62U, the self-cleavage is 0.11. In the case of A3G A5G G9A C39A, the self-cleavage came to 0.14. For the variant A3G A15G A20U C32U U78C, the self-cleavage came to 0.09. For A3G A18U A28G G36A U80C, the self-cleavage turned out to be 0.09. With A3G A15G U25A U48C U67C U72C, the self-cleavage stood at 0.12. Turning to A3G A15U U41A U67G U76A, the self-cleavage came to 0.08.

Take A3G A5U A13G U41A U51A: the self-cleavage was 0.17.

In the case of A3G A20G A57G U60C, the self-cleavage came out at 0.47. On to A3G A18G A20G A35U C39U U49C, for which the self-cleavage turned out to be 0.06.

In the case of A3G A15U U25C U78C, the self-cleavage worked out at 0.48. As for A3G A18G U41C U54C U80C, the self-cleavage amounted to 0.95. On to A3G A5G U25C U60G A75U U80C, for which the self-cleavage came to 0.07. Turning to A3G A13C U60A A64G A65U, the self-cleavage was determined as 0.3. On to A3G A18C U31A A57G, for which the self-cleavage was 0.08.

For the variant A3G A15C A45G A75U, the self-cleavage worked out at 0.86. For the variant A3G A13C A15G A18G, the self-cleavage came to 0.85.

As to A3G A15G A20G U26C A77G, the self-cleavage amounted to 0.15. As to A3G A13G U31C U41C A64G A75U, the self-cleavage stood at 0.62. As for A3G A13U A15G A20G A21G, the self-cleavage was found to be 0.71. Consider A3G A13C U60C, for which the self-cleavage turned out to be 0.58. As to A3G A18G G36A, the self-cleavage came out at 0.47. With A3G A13C U43C A47G U49A G70A, the self-cleavage amounted to 0.22. As for A3G A13G A15G U74A A75G, the self-cleavage was 0.14. On to A3G A5U G7U U69C U74C, for which the self-cleavage amounted to 0.1.

The record behind these values is the RNAGym collection of RNA variant scans (doi:10.1093/nar/gkz1192).
